Hit rate of the full screen: of about 370,000 compounds, about 150 (0.041%) were called active. The shares of active, inactive and inconclusive entries below differ from those in the screen. Calls follow the shape of the dose curve; as a rule, active = well fitted inhibition curve with a large enough effect; inconclusive = small, poorly fitted or top-dose-only effect; inactive = flat fitted curve, though single readings scatter. No potency is given beside an inconclusive call; the fits are too rough.
The molecules below were run against Beta-lactamase (Escherichia coli (strain K12)) (UniProt P00811) (assay: qHTS Inhibitors of AmpC Beta-Lactamase (assay with detergent)). Details: AmpC hydrolysis of nitrocefin, absorbance 480 nm, 0.01% Triton; series mostly up to 114 µM.
Sequence of UniProt P00811 (P00811 whole entry, looked up): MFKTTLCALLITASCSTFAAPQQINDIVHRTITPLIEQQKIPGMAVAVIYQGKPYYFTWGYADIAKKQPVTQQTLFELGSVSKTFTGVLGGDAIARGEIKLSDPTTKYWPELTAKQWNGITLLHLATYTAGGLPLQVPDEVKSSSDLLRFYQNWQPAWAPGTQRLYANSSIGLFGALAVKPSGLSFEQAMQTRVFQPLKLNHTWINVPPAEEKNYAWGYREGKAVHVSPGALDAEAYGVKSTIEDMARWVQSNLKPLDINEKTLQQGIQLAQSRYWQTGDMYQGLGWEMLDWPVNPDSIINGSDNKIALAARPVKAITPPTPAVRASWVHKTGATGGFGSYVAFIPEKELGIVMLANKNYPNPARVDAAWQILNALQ
Procedure, shortened: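 20 mM phosphate pH 7.0 + 0.01% (detergent screen) or 0.0001% Triton X-100; 5.3 nM AmpC reagent; cpd preinc 15 min RT; nitrocefin (800 uM stock) to start; A480 q20 s × 4 min; Activity was normalised to no-enzyme and no-compound control wells.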
For Cc1ccc(S(=O)(=O)N(C)CCCC(=O)Nc2ccc(F)cc2)cc1, the Potency was inconclusive [inhibitor, single point].
For COc1ccc(-c2noc(C3CCCN(S(=O)(=O)c4cccc(Cl)c4)C3)n2)cc1OC (stereo unspecified), the Potency was inconclusive [inhibitor, full curve, poor fit].
For C=CCOc1ccc(Br)cc1/C=C1/SC(=Nc2ccc(C(=O)O)cc2)NC1=O, the Potency was inconclusive [inhibitor, single point].
For CCCCCN(C(=O)CCC(=O)OCC(=O)N(C)Cc1ccc(C)cc1)c1c(N)n(CCCC)c(=O)[nH]c1=O, the Potency was inconclusive [inhibitor, partial curve].
Cc1ccccc1CC(=O)N(CCN(C)C)CC1CCCN(Cc2ccccc2F)C1 (stereo unspecified) was tested, and the Potency was inconclusive [inhibitor, full curve].
For CCOC(=O)C1=C(C)NC2=C(C(=O)CCC2)C1c1ccc(N(C)C)cc1 (stereo unspecified), the Potency was inconclusive [inhibitor, full curve].
For O=C1/C(=C/c2ccncc2)CCC/C1=C\c1ccncc1, the Potency was inconclusive [inhibitor, single point].
With CCc1nnc(NC(=O)c2ccc3nc(CC)c(CC)nc3c2)s1 the Potency was inconclusive [inhibitor, full curve, poor fit].
O=C(NC1CCCCC1)C(c1ccco1)N(C(=O)c1csnn1)c1ccccc1 (stereo unspecified) was tested, and the Potency was inconclusive [inhibitor, partial curve, poor fit].
With COC(=O)c1ccc(OCC(O)CNCC(c2ccc(OC)cc2)N(C)C)c(OC)c1 (stereo unspecified) the Potency was inconclusive [inhibitor, partial curve, poor fit].
CCCN1C(=O)/C(=C\c2ccncc2)SC1=Nc1ccccc1 was tested, and the Potency was “inactive”.
C=CCn1c(NCCc2ccccc2)nc2c1c(=O)n(C)c(=O)n2C was tested, and the Potency was inconclusive [inhibitor, partial curve, poor fit].
With CCOc1ccc2oc(C(=O)N(CC)CC(=O)Nc3c(F)cccc3F)c(C)c2c1 the Potency was inconclusive [inhibitor, full curve, poor fit].
With O=C(O)c1cccc(S(=O)(=O)N2CCOCC2)c1 the Potency was inconclusive [inhibitor, full curve, poor fit].
Cc1cc(=O)n2nc(N3CCCC(C(=O)NC(C)c4ccccc4)C3)sc2n1 (stereo unspecified) was tested, and the Potency was inconclusive [inhibitor, full curve, poor fit].
For COc1ccc(-n2nc3c(N4CCCC(C(=O)NCc5ccc(C)cc5)C4)nnc(C)c3c2C)cc1 (stereo unspecified), the Potency was “inactive”.
With Cc1cc(C)cc(N(CCC#N)C(=O)COC(=O)c2ccc(OCc3c(C)noc3C)cc2)c1 the Potency was inconclusive [inhibitor, full curve, poor fit].
COCc1cccc(N2C(=O)CC(C3C=C(C)C4C(=O)N(c5cccc(COC)c5)C(=O)C4C3)C2=O)c1 (stereo unspecified) was tested, and the Potency was inconclusive [inhibitor, single point].
In the case of CCOc1ccccc1NC(=O)N1CCC(n2c(C)nc3cccnc32)CC1, the Potency is reported as “inactive”.
CN1CCN(C(=O)c2ccccc2[N+](=O)[O-])CC1 was tested, and the Potency was inconclusive [inhibitor, partial curve].
In the case of Cc1ccc(N=Nc2c(N)[nH]n3c(=O)cc(C)nc23)cc1, the Potency is reported as inconclusive [inhibitor, full curve, poor fit].
O=C(c1cc2c(s1)CCCC2)N1CCN(Cc2ccc3c(c2)OCO3)CC1 was tested, and the Potency was inconclusive [inhibitor, full curve, poor fit].
For Cc1ccc(S(=O)(=O)N(C)Cc2nc(-c3ccc(Br)cc3)no2)cc1, the Potency was inconclusive [inhibitor, full curve, poor fit].
O=C(CC1CCCC1)Nc1nc2ccccc2[nH]1 was tested, and the Potency was inconclusive [inhibitor, partial curve].
O=C1OC(c2cccs2)=N/C1=C/c1ccc(-c2cccc(C(=O)O)c2)o1 was tested, and the Potency was “inactive”.
For Cc1onc(-c2ccccc2)c1C(=O)n1cc(Br)cn1, the Potency was inconclusive [inhibitor, full curve, poor fit].
With COc1ccc(C)cc1CN1C(=O)c2ccccc2C1=O the Potency was “inactive”.
In the case of COc1ccc(OCc2nc(N)nc(Nc3ccc(C)cc3)n2)cc1, the Potency is reported as inconclusive [inhibitor, single point].
For COc1ccc(S(=O)(=O)N2CCCCCC2)cc1NC(=O)Cc1ccccc1F, the Potency was “inactive”.
With CCSc1nc2sc3c(c2c(=O)[nH]1)CCCC3 the Potency was inconclusive [inhibitor, full curve, poor fit].
For O=C(NCC1CCCN1S(=O)(=O)c1cccs1)C(=O)Nc1ccc(F)cc1F (stereo unspecified), the Potency was inconclusive [inhibitor, full curve, poor fit].
CCN(CCCCN1C(=O)c2ccccc2C1=O)c1ccc2c(c1)C(=O)N(C)C2=O was tested, and the Potency was inconclusive [inhibitor, full curve, poor fit].
In the case of OCCN(Cc1ccccc1)C(=S)NC1CCCCC1, the Potency is reported as inconclusive [inhibitor, single point].
CC(Oc1ccc(Cl)cc1Cl)C(=O)NNC(=O)c1cccnc1 (stereo unspecified) was tested, and the Potency was “inactive”.
With O=C(NCc1csc(-c2cccs2)n1)C1CCCCC1 the Potency was “inactive”.
With CCOC(=O)c1c(S(=O)(=O)Nc2ccc(C)c(F)c2)c(C)n(C)c1C the Potency was inconclusive [inhibitor, full curve, poor fit].
With CCOC(=O)c1cnc(-n2nc(C)cc2C)nc1NNc1nc(-c2ccccc2)cc(-c2ccccc2)n1 the Potency was inconclusive [inhibitor, full curve, poor fit].
For CCc1cc(=O)oc2cc(OCc3ccc(C(=O)O)o3)ccc12, the Potency was “inactive”.
Cc1nc(N2CCN(c3ccccc3)CC2)[nH]c(=O)c1CCC(C)C was tested, and the Potency was inconclusive [inhibitor, full curve, poor fit].
In the case of CN(C)c1ccc(CN2CCC(C(N)=O)CC2)cc1, the Potency is reported as inconclusive [inhibitor, single point].
COc1cc(/C=C(/Sc2nnc(-c3ccc(F)cc3)o2)C(=O)O)ccc1OC(F)F was tested, and the Potency was inconclusive [inhibitor, partial curve].
Fc1cccc(F)c1/C=N/Nc1ccccn1 was tested, and the Potency was inconclusive [inhibitor, full curve].
For COc1ccc2nnc(-c3ccc(C(F)(F)F)cc3)n2n1, the Potency was inconclusive [inhibitor, partial curve].
In the case of COc1ccc(NC(=O)CN(C)C(=O)c2ccc(NS(=O)(=O)c3ccc(C)c([N+](=O)[O-])c3)cc2)cc1, the Potency is reported as inconclusive [inhibitor, full curve, poor fit].
With COc1ccc(C(=O)NCC(=O)OCCCOC(=O)CNC(=O)c2ccc(OC)c(OC)c2)cc1OC the Potency was inconclusive [inhibitor, full curve, poor fit].
With O=C1OC(c2ccc(Br)cc2)=N/C1=C\N1CCCCC1 the Potency was “inactive”.
For COc1ccc(CN2CCNC(=O)C2CC(=O)NC2CCCCCCC2)cc1C (stereo unspecified), the Potency was inconclusive [inhibitor, full curve, poor fit].
For O=C(NCCc1ccccc1)C(=O)NCC1OCCN1S(=O)(=O)c1cc(F)ccc1F (stereo unspecified), the Potency was inconclusive [inhibitor, full curve, poor fit].
For Cc1nc2ccccn2c1C(=O)NCc1ccc2c(c1)OCO2, the Potency was inconclusive [inhibitor, full curve, poor fit].
In the case of CCC(=O)N1CCc2cc(S(=O)(=O)CCC(=O)NCc3cccs3)ccc21, the Potency is reported as inconclusive [inhibitor, partial curve, poor fit].
With COc1ccc(CNC(=O)CCC(=O)N2CC3CCCN3c3ccccc32)cc1 (stereo unspecified) the Potency was “inactive”.
With COc1ccccc1CNC(=O)c1ccc(CS(=O)(=O)c2ccccc2C)o1 the Potency was inconclusive [inhibitor, single point].
With CCOC(=O)NNc1ccc2nonc2c1[N+](=O)[O-] the Potency was “inactive”.
O=C(c1ccc(CN2CCOCC2)cc1)N1CCN(c2ccccc2)CC1 was tested, and the Potency was inconclusive [inhibitor, partial curve, poor fit].
CCOc1cc(-c2noc(CCCC(N)=O)n2)cc(Br)c1OC was tested, and the Potency was inconclusive [inhibitor, partial curve, poor fit].
With Cc1nn(C)c(Cl)c1CN1CCCC(CCC(=O)NCc2ccccc2F)C1 (stereo unspecified) the Potency was “inactive”.
For Cc1ccc(CNC(=O)Cc2coc3cc(C)cc(C)c23)cc1, the Potency was “inactive”.
In the case of O=C1C(Cl)=C(NCC2CCCO2)C(=O)N1c1ccccc1 (stereo unspecified), the Potency is reported as “inactive”.
In the case of O=C(Cn1c(NCCCO)nc2ccccc21)c1ccc([N+](=O)[O-])cc1, the Potency is reported as inconclusive [inhibitor, single point].
With Cc1nn(C)cc1/C=N/NC(=S)Nc1ccccc1 the Potency was “inactive”.
CCOC(=O)COc1ccc2c(C#N)c3ccccn3c2c1 was tested, and the Potency was “inactive”.
With O=C(Nc1ccccc1)Nc1ccc(Oc2ncnc3cc(Cl)ccc23)nc1 the Potency was “inactive”.
With O=C(Nc1ccnc(=O)[nH]1)c1sc2ccccc2c1Cl the Potency was inconclusive [inhibitor, full curve].
In the case of Nc1ccc(OCCc2ccccc2)cc1, the Potency is reported as inconclusive [inhibitor, full curve, poor fit].
CCC(=O)Nc1nonc1-c1nc2ccccc2n1Cc1cccc2ccccc12 was tested, and the Potency was inconclusive [inhibitor, full curve, poor fit].
With CCOc1ccccc1NC(=O)CCS(=O)(=O)c1cccc2nonc12 the Potency was inconclusive [inhibitor, full curve].

Source: PubChem BioAssay AID485294 (National Center for Advancing Translational Sciences (NCATS), 2010)
Also: nearly all actives have a fitted effect of over 25% in size.
Potency is read from the fitted curve at half-maximal effect; tags tell the direction and shape of the fitted curve.
